Measured values: patent publication US20230257469A1 (SINOCELLTECH, published 2023)

Molecular target: T1, recombinant human TGF-β1 protein (human, UniProt P01137 fragment)
T1 construct: the ELISA and cell assays say only TGF-β1 protein; also called TGF-β1 factor
Test: ELISA on coated TGF-β1 according to Example 3.4

T1 sequence (P01137 279-390 limits assumed): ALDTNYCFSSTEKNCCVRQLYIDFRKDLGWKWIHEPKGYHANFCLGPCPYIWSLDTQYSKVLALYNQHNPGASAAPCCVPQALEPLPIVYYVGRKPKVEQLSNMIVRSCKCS

B1: X/TGFβR2 fusion protein 22 (Bevacizumab, full length TGFβR2 ECD) (other)
heavy: EVQLVESGGGLVQPGGSLRLSCAASGYTFTNYGMNWVRQAPGKGLEWVGWINTYTGEPTYAADFKRRFTFSLDTSKSTAYLQMNSLRAEDTAVYYCAKYPHYYGSSHWYFDVWGQGTLVTVSS[left out - human IgG1 constant region]GGGSGGGGSGGGGSGGGGSIPPHVQKSVNNDMIVTDNNGAVKFPQLCKFCDVRFSTCDNQKSCMSNCSITSICEKPQEVCVAVWRKNDENITLETVCHDPKLPYHDFILEDAASPKCIMKEKKKPGETFFMCSCSSDECNDNIIFSEEYNTSNPD
light: DIQMTQSPSSLSASVGDRVTITCSASQDISNYLNWYQQKPGKAPKVLIYFTSSLHSGVPSRFSGSGSGTDFTLTISSLQPEDFATYYCQQYSTVPWTFGQGTKVEIKRTVAAPSVFIFPPSDEQLKSGTASVVCLLNNFYPREAKVQWKVDNALQSGNSQESVTEQDSKDSTYSLSSTLTLSKADYEKHKVYACEVTHQGLSSPVTKSFNRGEC
notes: Signal peptide of 19 residues left out; limits counted from the printed segments
B1: binds.

B2: X/TGFβR2 fusion protein 28 (Panitumumab, full length TGFβR2 ECD) (other)
heavy: QVQLQESGPGLVKPSETLSLTCTVSGGSVSSGDYYWTWIRQSPGKGLEWIGHIYYSGNTNYNPSLKSRLTISIDTSKTQFSLKLSSVTAADTAIYYCVRDRVTGAFDIWGQGTMVTVSS[left out - human IgG1 constant region]GGGSGGGGSGGGGSGGGGSIPPHVQKSVNNDMIVTDNNGAVKFPQLCKFCDVRFSTCDNQKSCMSNCSITSICEKPQEVCVAVWRKNDENITLETVCHDPKLPYHDFILEDAASPKCIMKEKKKPGETFFMCSCSSDECNDNIIFSEEYNTSNPD
light: DIQMTQSPAALSASVGDRVTITCQASQDISNYLNWYQQKPGKAPKLLIYDASNLETGVPSRFSGSGSGTDFTFTISSLQPEDIATYFCQHFDHLPLAFGGGTKVEIKRTVAAPSVFIFPPSDEQLKSGTASVVCLLNNFYPREAKVQWKVDNALQSGNSQESVTEQDSKDSTYSLSSTLTLSKADYEKHKVYACEVTHQGLSSPVTKSFNRGEC
notes: as for B1
B2: binds.

B3: X/TGFβR2 fusion protein 23 (Bevacizumab, ECD delete (6-26)) (other)
heavy: EVQLVESGGGLVQPGGSLRLSCAASGYTFTNYGMNWVRQAPGKGLEWVGWINTYTGEPTYAADFKRRFTFSLDTSKSTAYLQMNSLRAEDTAVYYCAKYPHYYGSSHWYFDVWGQGTLVTVSS[left out - human IgG1 constant region]GGGSGGGGSGGGGSGGGGSIPPHVLCKFCDVRFSTCDNQKSCMSNCSITSICEKPQEVCVAVWRKNDENITLETVCHDPKLPYHDFILEDAASPKCIMKEKKKPGETFFMCSCSSDECNDNIIFSEEYNTSNPD
light: B1 light
notes: as for B1
B3: binds.

B4: X/TGFβR2 fusion protein 29 (Panitumumab, ECD delete (6-26)) (other)
heavy: QVQLQESGPGLVKPSETLSLTCTVSGGSVSSGDYYWTWIRQSPGKGLEWIGHIYYSGNTNYNPSLKSRLTISIDTSKTQFSLKLSSVTAADTAIYYCVRDRVTGAFDIWGQGTMVTVSS[left out - human IgG1 constant region]GGGSGGGGSGGGGSGGGGSIPPHVLCKFCDVRFSTCDNQKSCMSNCSITSICEKPQEVCVAVWRKNDENITLETVCHDPKLPYHDFILEDAASPKCIMKEKKKPGETFFMCSCSSDECNDNIIFSEEYNTSNPD
light: B2 light
notes: as for B1
B4: binds.
